Assay results from article PMC12136788.
The list shows a part of the results.

T1: UNK ZnF1-3 (human, UniProt Q9C0B0 31-174)
T1 sequence: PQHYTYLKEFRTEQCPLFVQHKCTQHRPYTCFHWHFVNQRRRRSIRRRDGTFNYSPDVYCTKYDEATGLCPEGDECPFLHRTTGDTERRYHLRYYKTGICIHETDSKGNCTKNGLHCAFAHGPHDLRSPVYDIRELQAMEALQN

B1: chr10:70718461:70718462:-_ENSMUSG00000019927_ENSMUST00000020085|mus_mus|FALSE|FALSE (ssRNA)
RNA: GGGAGUUCUACAGUCCGACGAUCGUAAAAACCAAAGGGCUCGUGGAACGAAGGACACGGCAAACGGCGCCCGGCUUAAUGCUAACGCUGGAAAAGACAUAGAUUUUACAGUACUCUGGCGUAAGUGAAAGUGUUUGAAACUUUCAACAGAGGAUUGAGCAUCA
B2: chr4:76721835:76721836:+_ENSG00000138768_ENST00000264904|hu_mus|hu_hu_hu_mus_True|28_28 (ssRNA)
RNA: GGGAGUUCUACAGUCCGACGAUCGUUUGGCUGGGGUUUCUGAGACGCUCUGGAAUAUAACUCAUGUUUGCUAAUAAAUCCUAGUUUCUCUAUGAAAUUCUCUUUGCAAUCCUCUUCCUCUAUUAGUUGCUUUAGUUUCUCUUUCAACAGAGGAUUGAGCAUCA
B3: 100451482_100455505_703_CDS_ENSG00000114354_ENST00000490574|human|control|control (ssRNA)
RNA: GGGAGUUCUACAGUCCGACGAUCAACGCCUGGUGGGUGAGCUGCUGAGGAGGAGGAAGCAAUGCUGUCGGGUGUUCCUGAACGAUCUUCUGCAGGAGCACUGGGUGGCCCUGAAACCUGAUCAUCUGUUAAGCCAAACGCUGACAACAGAGGAUUGAGCAUCA
B4: 121154423_121154905_660_CDS_ENSMUSG00000053931_ENSMUST00000029773|mouse|control|control (ssRNA)
RNA: GGGAGUUCUACAGUCCGACGAUCUACACUCUGGCCAGCCUUUAAUUUGCCUUCAUCAAAACGUCUUGUUUGUUUUUCUGCAUACUUAACGCCAAUGUCAAUGGUUGUAUGGAAUCCUUUUGUUUUCGCCAGACCUGCUAGAGCCAACAGAGGAUUGAGCAUCA
B5: chr9:96305504:96305505:+_ENSG00000048828_ENST00000277165|hu_hu|motif|central (ssRNA)
RNA: GGGAGUUCUACAGUCCGACGAUCAGCUGCCCAUUCUUUAAUGAUCACUGGUGAAAAUUCUGGUGGAAGUCUGUUCUUUCGGAAAGCAAGUCUCUCAGUUUUCUUUCUGCUUUCUGCCAAACUAAACAGGACUCCGUAAACAUACAACAGAGGAUUGAGCAUCA
B6: 112566168_112598772_489_CDS_ENSMUSG00000021754_ENSMUST00000109267|mouse|control|control (ssRNA)
RNA: GGGAGUUCUACAGUCCGACGAUCCGGGCGAUCCUCCAUCUUGUGCAGUCCUUUGAGGGUUUCUUUAUUCUCCAUCUCUCGACCGGAGGGGGCCGCUGCAGAGGGCGGCUCGGCCCCCGCGGGGCUCCGGGCGCCGCUGUCCCGCAACAGAGGAUUGAGCAUCA
B7: 117616667_117616787_4179_CDS_ENSMUSG00000025571_ENSMUST00000138299|mouse|control|control (ssRNA)
RNA: GGGAGUUCUACAGUCCGACGAUCUUUGGCACGUGACCAGCUAUGGGGAACAGCUACGGGAGGACUGGCUGGUGACUCACUGUUCUGAAUUAAAUCGUACCGGCCGUAAGAGUCAUCAAUGGAGGACUUACCUGGAGGCCCGAUCAACAGAGGAUUGAGCAUCA
B8: 96419434_96420881_1025_CDS_ENSMUSG00000023169_ENSMUST00000088452|mouse|control|control (ssRNA)
RNA: GGGAGUUCUACAGUCCGACGAUCCCAGGCUGAAAAUGCAUCCUCCUCUCCCAUGAGGGAUUUUAUGGCUGAAGGAAGUUCGUUUUUUACUAUGAAGAGGUAGCUCAGCAUCGCCCCAGUGUUCUGCAGAGAGGUGGCUCCGAACAACAGAGGAUUGAGCAUCA
B9: 59413454_59413574_593_CDS_ENSMUSG00000020108_ENSMUST00000020308|mouse|control|control (ssRNA)
RNA: GGGAGUUCUACAGUCCGACGAUCGGUCAACUGAAAGGUGGGCACCAGGCUGGGGUCGAGGGCCAGCUGAGCCACGCUAUGGCAGCUCUUGCCUUGCUCCACACACACGUCCAGCAGUGCCCCCCGCAGGCCGCACGGCUCACUCAACAGAGGAUUGAGCAUCA
B10: chr6:38654746:38654747:-_ENSG00000124767_ENST00000373365|hu_hu|FALSE|FALSE (ssRNA)
RNA: GGGAGUUCUACAGUCCGACGAUCAAAAUCCAGUGACUUCUUAGGAUCCUUCACUCGUAGCAUGGUCUGCUGCAAUAGAAAAUCCUUGGUACUGGGGUCCGCGUCGGAGCAGCAACUGAGGGCGGCCUCGUCCGUGAGGCCGCCCAACAGAGGAUUGAGCAUCA
B11: 45362181_45362301_7668_3pUTR_ENSG00000175387_ENST00000356825|human|control|control (ssRNA)
RNA: GGGAGUUCUACAGUCCGACGAUCUACCAUCUUUAAUUAAAAAUAAGUAAAUCAAAGAGCAUAUUUGGAGAAACUAAGAGCUGUUAACUGUUUGGAGGGUAAAAGAAUACUUUUCUCGAAAUUUUUUUGAAGAAAAAUCUAAAACAACAGAGGAUUGAGCAUCA
B12: chr18:31598358:31598359:-_ENSMUSG00000024261_ENSMUST00000025110|mus_hu|FALSE|FALSE (ssRNA)
RNA: GGGAGUUCUACAGUCCGACGAUCAUGCAUUUUUCAUAGAAUUUACAAACACUGUGAUAUCAAACACAUUCUCAAAAACUGCUAAAGUACUGACACAAAACCUGACUCAAAAUGUAAAUUUUUCAGUAGACUUAAUUUCUAACUCAACAGAGGAUUGAGCAUCA
B13: chr11:118894041:118894042:+_ENSG00000196655_ENST00000359005|hu_mus|motif|central (ssRNA)
RNA: GGGAGUUCUACAGUCCGACGAUCAGGUUCAUCCUAUGACCCAGGUCCAAAAGUGCCAGCCUUCUCUGCCACCUCGGGAGCGGGCUUCAGGUUUUGAUCAAACAGCUCGCAUCUGAUAGGCAUUUCCAAGGAGUAGAAUGGAUUCAACAGAGGAUUGAGCAUCA
B14: chr14:89338683:89338684:+_ENSG00000165533_ENST00000346301|hu_hu|hu_hu_hu_mus_False|78_78 (ssRNA)
RNA: GGGAGUUCUACAGUCCGACGAUCGUGGUUGUUGUGGACCAGGGCCAGCCUGAAGCACUGAUGGGCCAAGUUUGUAUCUCCGAUUCCCACAGCUAUGUGCCCCAGGUUGUACCAGACAUCAGCUGCCUCUUCUUCAUUUUCAGCCAACAGAGGAUUGAGCAUCA
B15: chr14:105707756:105707757:+_ENSMUSG00000053253_ENSMUST00000138283|mus_hu|FALSE|FALSE (ssRNA)
RNA: GGGAGUUCUACAGUCCGACGAUCAUUUAUUUUUCUUAUAAAGGACAUUUGGUAUUCCCACAUUUUCUUAAAAUUUGUCCUAAAACAAAUUCUAUCUUUAACACUCACGUUUCUAAAUAUAUAUAUGUGUGUGUGUAUAUAUAUCAACAGAGGAUUGAGCAUCA
B16: chrX:71549400:71549401:+_ENSMUSG00000019087_ENSMUST00000019231|mus_hu|mus_mus_mus_hu_False|8_8 (ssRNA)
RNA: GGGAGUUCUACAGUCCGACGAUCGCAGUAGGAAGAGGGAAGCUCUUCAGUCCAGUGCGCUGCAGGGUGGGAAAGCAACAACACGGACACCGUCCCACCCUCAACCCCCCCACUGGCACAGGGUCACAUCUGGGUCAUCAAAGACAACAGAGGAUUGAGCAUCA
B17: chrX:140365796:140365797:-_ENSMUSG00000031285_ENSMUST00000033642|mus_mus|FALSE|FALSE (ssRNA)
RNA: GGGAGUUCUACAGUCCGACGAUCCUUCUCAUUACUUAAUGCCUGCAAGGUUCUGGUUCUGUAGAAGCUACAGUGGGCACUAUGAGUGGGACUUGGAAGUCCAUUCAUCCGUGACCCUCUCAUAUUUCUAGAUGCUUUGUCUCGCAACAGAGGAUUGAGCAUCA
B18: chr15:72934872:72934873:-_ENSMUSG00000036698_ENSMUST00000044113|mus_mus|motif|central (ssRNA)
RNA: GGGAGUUCUACAGUCCGACGAUCGACAUUUGGUCUGGGGAUACAUUUCAUAUUAAAAGUGUCACAAGUAAGCAUGGGCGGCGGCAGAAAGUACUUUGCUUCCAGUACUUUGGCCCAUCAGAAAGAAAACCUAUCCUUCAAGGUCAACAGAGGAUUGAGCAUCA
B19: chr4:56291666:56291667:+_ENSG00000134851_ENST00000381334|hu_mus|FALSE|FALSE (ssRNA)
RNA: GGGAGUUCUACAGUCCGACGAUCAAAAUACAGUGUUUCCCAUUACUUUUAGUUGUAAUGUACACUAUGUACAGAAAAGAGUUGCCUAUCUUAAGCUGAAUACUGAAGAACAGCUUGUUAAAAACCAGACUCUGGACUUAUAAACAACAGAGGAUUGAGCAUCA
B20: chr5:31552970:31552971:+_ENSG00000082213_ENST00000325366|hu_hu|FALSE|FALSE (ssRNA)
RNA: GGGAGUUCUACAGUCCGACGAUCCAUGUACAAAUAAGUUAAUUAAGGGCCUGUUACUAAACCAAGAUACAACAGGAGCCUAAUGUUUUGUUUGUUUCAAGAUGGAGGAGACUCUGCUGCAUACACUUGGAGGUCUAGAUUUCCCAACAGAGGAUUGAGCAUCA
B21: chr2:42509997:42509998:+_ENSG00000143924_ENST00000318522|hu_mus|hu_hu_hu_mus_True|1_28 (ssRNA)
RNA: GGGAGUUCUACAGUCCGACGAUCUCGCUGAGUCCUCUCCUCAUAAUUAAACAGGACUACCACUGAGGCGAUAAAAUAAACUAUCUCCCCUGUGGGAAGCAGGUAUACAUUAGCUCUACAGUCCUUUCCUCGAUAACCAUAUGCCAACAGAGGAUUGAGCAUCA
B22: chr8:3604753:3604754:+_ENSMUSG00000044433_ENSMUST00000057028|mus_hu|FALSE|FALSE (ssRNA)
RNA: GGGAGUUCUACAGUCCGACGAUCGGGUGGCGUAAGCACCCUGGUCAAGGGUGCCAGCCGCAGCUCCGCUGGCCGCGUGUGUUUCGGGCUGCGGGGUGACUGGCUGGGCCCGGGCCCAGGGCUGCGCCGGGUGGCCGGGACUCGCAACAGAGGAUUGAGCAUCA

Biological target: T1, UNK ZnF1-3
Test: nsRBNS (natural sequence RNA bind-n-seq); RBNS binding buffer (assumed for nsRBNS): 25 mM Tris pH 7.5, 150 mM KCl, 3 mM MgCl2, 0.01% Triton X-100, 500 ug/ml BSA, 20 U/ml SUPERase-In, 4 C; UNK is unkempt and MSI1 is Musashi-1; names of the RNAs are library labels; protein concentration not given here; high values mean tight binding

| Binder | binding signal [enrichment R] |
| --- | --- |
| B1 | 0.757 |
| B2 | 0.475 |
| B3 | 2.05 |
| B4 | 0.598 |
| B5 | 1.21 |
| B6 | 0.66 |
| B7 | 2.09 |
| B8 | 1.34 |
| B9 | 0.45 |
| B10 | 0.895 |
| B11 | 1.18 |
| B12 | 0.927 |
| B13 | 1.16 |
| B14 | 0.717 |
| B15 | 0.687 |
| B16 | 1.27 |
| B17 | 0.399 |
| B18 | 0.846 |
| B19 | 0.627 |
| B20 | 1.38 |
| B21 | 0.942 |
| B22 | 0.327 |
